# Test results as given in PubChem BioAssay AID1479 (National Center for Advancing Translational Sciences (NCATS), 2009).
# Values joined by “and” are separate entries in the source; they are usually repeats but may differ in a detail not shown here. Equal values may be shown once. Hit rate of the full screen: of about 280,000 compounds, about 820 (0.29%) were called active. Inconclusive results, whose numbers are uncertain, are shown with a selection of clear calls. Calls come from the whole dose curve; as a rule, active = well fitted curve in either direction with a large enough effect; inconclusive = small, poorly fitted or top-dose-only effect; inactive = flat fitted curve, though single readings scatter. Potencies of inconclusive entries are left out as doubtful fits.
# Test: Total Fluorescence Counterscreen for Inhibitors of the Interaction of Thyroid Hormone Receptor and Steroid Receptor Coregulator 2
# Settings: TRb/SRC2 Texas Red total fluorescence interference; series mostly up to 106 µM; fluorescence change, negative = quenching: at the top concentration
# Outline: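 Human TRb ligand-binding domain at 0.6 uM with 20 nM Texas Red SRC2 peptide in Tris buffer containing 1 uM T3 and 5% DMSO, incubated with compound 5 h at ambient temperature. Total fluorescence (555/632 nm) calculated as parallel + 2 × perpendicular.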
# % is set by controls: 0 for no effect and ±100 for the full control effect; potency is the fitted concentration of half-maximal effect; tags give direction and shape of the fitted curve or compound fluorescence and quenching.
Compound,Potency,"fluorescence change, negative = quenching"
Cc1cc(/C=C2\SC(=S)NC2=O)c(C)[nH]1,"inconclusive [falling, single point]",
O=C(Nc1ccc2oc(-c3ccc4ccccc4c3)nc2c1)c1ccccc1F,"inconclusive [quencher, full curve]",
COc1ccc(C(=O)c2oc3ccc(OC)cc3c2N)cc1,,inactive: -4.54%
COc1cc(Cl)c(C)cc1NC(=O)Cn1ncc2c([nH]c3ccccc32)c1=O,"inconclusive [quencher, full curve]",
COc1cc(OC)cc(C(=O)Nc2ccc(S(=O)(=O)Nc3ncccn3)cc2)c1,"inconclusive [quencher, full curve]",
Cc1cccc(C(=O)Nc2nnc(S(=O)(=O)N(C)Cc3ccco3)s2)c1,"inconclusive [falling, full curve, poor fit]",
Cc1ccc(NS(=O)(=O)c2ccc3c(c2)CCCN3C(=O)C2CCC2)cc1Cl,"inconclusive [falling, full curve, poor fit]",
CCOc1cc(C2Nc3cccc4cccc(c34)N2)ccc1O,"inconclusive [quencher, partial curve]",
COc1cc(O)c2c(c1)oc(=O)c1c3cc(O)c(O)cc3oc21,active: 35.5 µM [quencher],
COC(=O)c1c(C)oc2ccc(N(C(=O)c3ccncc3)S(=O)(=O)c3ccc(C)cc3)cc12,,inactive: 1.31%
COc1cccc(NC(=O)CC(C)S(=O)(=O)c2ccc3c(c2)NC(=O)CO3)c1 (stereo unspecified),active: 20 µM [quencher],
Cc1cccc2sc(NC(=O)C3CCCN(S(=O)(=O)c4cccc5nonc45)C3)nc12 (stereo unspecified),"inconclusive [rising, single point]",
Cc1ccc(-c2csc(=Nc3ccc(F)cc3)n2Cc2ccc3c(c2)OCO3)cc1C,"inconclusive [quencher, full curve]",
CCc1ccc(-n2nc3ccc(NC(=O)c4ccc(C#N)cc4F)cc3n2)cc1,"inconclusive [rising, single point]",
O=c1c2c(-c3ccc(Cl)cc3)ccnc2[nH]n1-c1ccccc1,"inconclusive [falling, full curve, poor fit]",
C=Cc1c(C)c2cc3[nH]c(cc4nc(cc5nc(cc1[nH]2)C(C)=C5CCC(=O)O)C(CCC(=O)O)=C4C)c(C)c3C=C,active: 10 µM [fluorescent] and active: 15.8 µM [fluorescent],
COc1ccc(NC(=O)CN2CCCN(S(=O)(=O)c3ccc(F)cc3)CC2)cc1,"inconclusive [rising, single point]",
COC(=O)c1[nH]c2cc(OC)c(OC)cc2c1NC(=O)Oc1ccccc1,,inactive: -7.17%
COc1ccc(/C=C2/SC(=S)N(n3c(C)ccc3C)C2=O)cc1,"inconclusive [rising, single point]",
O=c1ccn(-c2cccc(C(F)(F)F)c2)nc1-c1ccn(-c2ccccc2)n1,,inactive: -0.531%
COC(=O)c1cc2oc3ccccc3c2n1Cc1cc(C)ccc1C,active: 22.4 µM [quencher],

Compound,Potency,"fluorescence change, negative = quenching"
Cc1ccc(S(=O)(=O)NCc2ccc3c(c2)cc(C)n3C)cc1,active: 44.7 µM [fluorescent],
Cc1c(NC(=O)/C(C#N)=C/c2c(Oc3ccccc3)nc3ccccn3c2=O)c(=O)n(-c2ccccc2)n1C,"inconclusive [falling, partial curve, poor fit]",
Cc1ccccc1Cn1c(=O)n(CCc2ccccc2)c(=O)c2ccccc21,"inconclusive [falling, full curve, poor fit]",
C=CCn1c(SCC(=O)Nc2cccnc2Cl)nnc1-c1ccc(Cl)cc1,"inconclusive [falling, partial curve, poor fit]",
CCn1cc(C(=O)OCC(=O)Nc2ccc(F)cc2F)c(=O)c2ccc(C)nc21,"inconclusive [falling, full curve, poor fit]",
COc1cc(OC)cc(C(=O)NCC(=O)OCC(=O)/C=C2/N(C)c3ccccc3C2(C)C)c1,,inactive: -4.54%
CCSc1ncc(Cl)c(C(=O)Nc2nc3ccc(OC)cc3s2)n1,active: 2.51 µM [quencher],
O=C(NCC(c1cccnc1)N1CCc2ccccc21)c1cccc(Br)c1 (stereo unspecified),"inconclusive [falling, full curve, poor fit]",
CC(=O)N(C1=C(N2CCOCC2)C(=O)c2ccccc2C1=O)c1ccc(C(=O)O)cc1,,inactive: -0.46%
Cc1ccc(NC(=O)/C(C#N)=C/c2ccc(-c3ccc(Cl)c(C(=O)O)c3)o2)cc1C,,inactive: -6.01%
CCOC(=O)c1cc(S(=O)(=O)Nc2cc(OC)ccc2OC)[nH]n1,"inconclusive [quencher, partial curve]",
S=c1[nH]cnc2sc(Nc3ccccc3)nc12,,inactive: -2.52%
CCCCCCCC(=O)NNC(=O)Cc1ccccc1,,inactive: 1.7%
CCN(CC)CCOC(=O)c1ccc(NC(=O)c2cc3c(=O)n(CC)c4ccccc4c3s2)cc1,"inconclusive [quencher, full curve]",
CO[C@H]1C=CO[C@@]2(C)Oc3c(C)c(O)c4c(O)c(c5c(nc6cc(C)ccn65)c4c3C2=O)NC(=O)C(C)=CC=C[C@H](C)[C@H](O)[C@@H](C)[C@@H](O)[C@@H](C)[C@H](OC(C)=O)[C@@H]1C,"inconclusive [rising, single point]",
Oc1ccc(C2Nc3cccc4cccc(c34)N2)c(O)c1,"inconclusive [quencher, partial curve]",
Cc1ccc(OCC(=O)Nc2ccc3nc(SCCOc4ccccc4)sc3c2)cc1,"inconclusive [quencher, full curve]",
COc1cc2ccccc2cc1C(=O)Nc1cccc(-c2nc3cc(C)ccc3o2)c1C,"inconclusive [quencher, full curve]",
CCOc1ccc(-c2nnc(SCC(=O)c3ccc(Br)cc3)n2-c2ccccc2)cc1,"inconclusive [quencher, full curve]",
Cc1cccc(N2CCN(C(=O)C3CCN(c4ncnc5c4nc4n5CCCCC4)CC3)CC2)c1C,"inconclusive [quencher, full curve]",
